# According to publication PMC4336329 (PLoS ONE, 2015):
# The campaign covered roughly 310,000 compounds. About 2,200 (0.71%) showed an effect of 50% or more. Effects have a minus sign here. The list shows a part of the results.
# Target: human ether-à-go-go-related gene (hERG) potassium channel (human, UniProt Q12809)
# Assay: primary screen, population patch clamp on CHO cells stably expressing hERG
# Chain of human ether-à-go-go-related gene (hERG) potassium channel (Q12809 whole entry, looked up): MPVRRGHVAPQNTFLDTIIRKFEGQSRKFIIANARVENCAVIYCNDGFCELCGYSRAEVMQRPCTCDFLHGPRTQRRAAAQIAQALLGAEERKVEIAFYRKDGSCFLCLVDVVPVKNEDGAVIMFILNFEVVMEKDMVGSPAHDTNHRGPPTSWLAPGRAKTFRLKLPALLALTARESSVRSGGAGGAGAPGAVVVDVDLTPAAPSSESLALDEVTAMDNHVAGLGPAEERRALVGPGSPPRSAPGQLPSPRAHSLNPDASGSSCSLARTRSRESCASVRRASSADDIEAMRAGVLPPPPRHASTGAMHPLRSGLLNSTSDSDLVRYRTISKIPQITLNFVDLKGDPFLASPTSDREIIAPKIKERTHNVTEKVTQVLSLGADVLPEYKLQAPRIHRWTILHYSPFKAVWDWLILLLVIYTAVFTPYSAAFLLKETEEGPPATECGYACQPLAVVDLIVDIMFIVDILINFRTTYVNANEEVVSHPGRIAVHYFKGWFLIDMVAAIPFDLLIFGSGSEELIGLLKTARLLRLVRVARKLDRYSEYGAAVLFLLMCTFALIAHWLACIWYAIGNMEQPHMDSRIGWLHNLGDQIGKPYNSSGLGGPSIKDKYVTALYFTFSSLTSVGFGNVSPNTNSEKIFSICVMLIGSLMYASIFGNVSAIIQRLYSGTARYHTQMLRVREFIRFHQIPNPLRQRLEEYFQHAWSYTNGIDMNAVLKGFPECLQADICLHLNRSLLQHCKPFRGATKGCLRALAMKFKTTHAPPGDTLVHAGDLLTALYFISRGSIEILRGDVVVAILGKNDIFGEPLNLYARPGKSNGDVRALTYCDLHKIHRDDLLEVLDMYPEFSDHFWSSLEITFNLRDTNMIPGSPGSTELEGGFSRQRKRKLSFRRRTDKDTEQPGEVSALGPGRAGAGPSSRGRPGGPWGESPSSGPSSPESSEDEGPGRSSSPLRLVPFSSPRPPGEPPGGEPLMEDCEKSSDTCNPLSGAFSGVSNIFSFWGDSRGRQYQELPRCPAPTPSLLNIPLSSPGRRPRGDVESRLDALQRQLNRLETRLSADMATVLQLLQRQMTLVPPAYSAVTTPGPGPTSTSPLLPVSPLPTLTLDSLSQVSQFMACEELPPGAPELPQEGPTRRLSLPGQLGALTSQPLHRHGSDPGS
row,SMILES,"hERG current change (%, negative = inhibition) at 1uM [%]"
1,Cc1cccc(N2CCN(C3=NC(=O)C(Cc4ccccc4)S3)CC2)c1 (stereo not shown),6.84
2,Cc1ccc(N(C(=O)c2csnn2)C(C(=O)NC2CCCCC2)c2ccccn2)cc1 (stereo not shown),22.7
3,CCN(CC(=O)Nc1ccccc1OC)C(=O)c1ccc2[nH]c3c(c2c1)CC(C)CC3 (stereo not shown),8.12
4,CC(C)C(NC(=O)c1ccc(Cl)cc1)C(=O)O (stereo not shown),10.2
5,COc1ccc(N/C=C2\CCOC2=O)cc1,-4.01
6,O=C(O)c1ccccc1-c1ccccc1C(=O)Nc1ccc(OC(F)(F)F)cc1,12.3
7,CCCN1CCC(=O)N([C@H](CSc2ccccc2)c2ccccc2)CC1,-82.2
8,Cc1ccc(C2=NCCn3nc4cc(C(F)(F)F)ccc4c32)cc1,1.36
9,Cc1ccc(S(=O)(=O)N2CCC(C(=O)Nc3ncccc3O)CC2)cc1,-13.8
10,O=C(O)C1(P(=O)(c2ccccc2)c2ccccc2)CCCC1,1.88
11,CCCCN(C)CCNC(=O)c1ccc(Cn2c(=S)[nH]c3ccc(Br)cc3c2=O)cc1,5.55
12,O=S(=O)(Nc1nc2ccccc2nc1NCCN1CCOCC1)c1cccc(Cl)c1,8.11
13,CCOC(=O)CNC(=O)c1ccc(C)cc1,5.01
14,COc1ccc(N(C(=O)c2snc(C(N)=O)c2N)C(C(=O)NC2CCCC2)c2ccco2)cc1 (stereo not shown),3.98
15,CC(C)(O)C#Cc1ccc(C(=O)N2CCN(c3ccccc3)CC2)cc1,12.1
16,S=C1NCN(Cc2ccco2)CN1c1cccc2ccccc12,12.5
17,COc1cc(C(C#N)N2CCOCC2)ccc1O (stereo not shown),12.2
18,COc1ccc(S(=O)(=O)N2CCOCC2)cc1C(=O)Nc1ccc2c(c1)OCO2,13.2
19,CCOc1ccc(NC(=O)CSc2nc(N3CCOCC3)nc(N3CCOCC3)n2)cc1,10.3
20,O=C1c2ccccc2S(=O)(=O)N1CC(O)Cn1c2ccccc2c2ccccc21 (stereo not shown),7.45
21,CN(C)c1ccc(/C=N/NC(=O)C(O)(c2ccccc2)c2ccccc2)o1,-5.86
22,Cc1ccc(NC(=O)c2sc3nc(C)nc(N4CCN(c5ccccn5)CC4)c3c2C)c(C)c1,-3.08

row,SMILES,"hERG current change (%, negative = inhibition) at 1uM [%]"
1,CCC(=O)NC1(C(F)(F)F)C(=O)Nc2c1c(=O)[nH]c(=O)n2CC(C)C (stereo not shown),1.05
2,CCOC(=O)C(Sc1ncc(C#N)c(N)n1)C(C)C (stereo not shown),5.46
3,CC(C)c1ccc(OCC(O)Cn2cnc3ccccc32)cc1 (stereo not shown),8.82
4,Cc1ccc(S(=O)(=O)NCCC(=O)NC(C)CCc2ccccc2)cc1 (stereo not shown),-10.7
5,O=C(OCc1c(F)cccc1Cl)c1cnccn1,13
6,O=C(Nc1ccc2ccccc2c1)c1cccc(F)c1,11.4
7,O=C(CSc1nc2c([nH]c3ccccc32)c(=O)n1-c1cccc(Cl)c1)N1CCOCC1,15.2
8,O=C(CNS(=O)(=O)c1ccc(Br)s1)N1CCCC1,17.7
9,O=S(=O)(c1cc(F)ccc1F)N1CCN(C2CCCCC2)CC1,4.35
10,CC(=O)c1ccc(NC(=S)N2CCN(CCN3C(=O)c4cccc5cccc(c45)C3=O)CC2)cc1,14.6
11,Cc1ccc(S(=O)(=O)N2CCOCC2)cc1C(=O)N(Cc1nnc(-c2ccccc2Cl)o1)C1CC1,0.237
12,COC(=O)c1ccc(NC(=O)CSc2nnnn2C2CCCCC2)cc1,12.5
13,c1ccc(CNC2=NCCC2)nc1,17.1
14,O=C(O)C(=O)O.c1ccc(CN2CCC(N3CCC(N4CCCCCC4)CC3)CC2)cc1,14.4
15,Cc1onc(-c2c(F)cccc2Cl)c1C(=O)N[C@@H]1C(=O)N2C(C(=O)[O-])C(C)(C)S[C@H]12.[Na+] (stereo partly shown),-1.91
16,O=[N+]([O-])c1cc(S(=O)(=O)N2CCCC2)ccc1N/N=C/c1cccs1,11.9
17,Cc1ccc(C)c(N2CN(CCC3=CCCCC3)CNC2=S)c1,-1.65
18,Cc1c(C(=O)N2CCCC2)sc(NC(=O)c2ccccc2)c1C#N,12.2
19,CC1(C)CN(c2ccc(Br)cc2Br)C1=O,16.2
20,O=C(CSc1nnnn1Cc1ccccc1)Nc1ccccc1,11.7
21,CCC1CSC(Nc2ccc(C(=O)/C=C/c3ccc(Oc4ccccc4)cc3)cc2)=N1 (stereo not shown),8.77
22,N#Cc1c(Nc2ccccc2)c(/C=N/N=C/c2ccccc2)c[nH]c1=O,9.64

row,SMILES,"hERG current change (%, negative = inhibition) at 1uM [%]"
1,C/C(COc1ccccc1)=N\NC(=O)c1nnn(-c2nonc2N)c1CSc1ccccc1,5.72
2,Oc1ccc(C=Nc2ccccc2-c2nc3ccccc3[nH]2)cc1,11.4
3,CC1=NNC(=O)C1Oc1ccccc1 (stereo not shown),0.965
4,COC(=O)C(NC(=O)CCc1nnc2ccc(N3CCC(C)CC3)nn12)C(C)C (stereo not shown),13
5,O=C(Nc1ccccn1)c1ccco1,13
6,COC(=O)c1sc(N2C(=O)C(=O)/C(=C(/O)c3ccc(C)cc3)C2c2ccco2)nc1C (stereo not shown),9.86
7,O=C(NCc1ccncc1)C(=O)NCC1OCCN1S(=O)(=O)c1ccc(Cl)cc1 (stereo not shown),10.2
8,O=C(O)c1ccccc1NS(=O)(=O)c1cccc2nsnc12,8.63
9,CCCOC(=O)c1ccc(NC(=O)/C=C/c2cccs2)cc1,7.88
10,Cc1ccc(-n2nc(C(=O)NCc3ccc(C)o3)c3c4ccccc4n(C)c3c2=O)cc1,2.41
11,CCC(CC)C(=O)N(CCc1ccc(OC)cc1)Cc1nc2ccccc2c(=O)[nH]1,0.442
12,COc1ccccc1NC(=O)c1cn(CCC#N)nc1-c1ccc(F)cc1,20.4
13,CC(=O)Cc1nsc(Nc2ccc(F)cc2)n1,8.2
14,COc1ccc(C)cc1N(CC(=O)Nc1cccc(N(C)S(C)(=O)=O)c1)S(C)(=O)=O,-5.24
15,O=C(CCN1C(=O)COc2ccccc21)NCCCN1CCN(c2ccc(F)cc2)CC1,-43.1
16,COc1ccc(/C=N/NC(=O)C2C3CCCCC32C)cc1OC (stereo not shown),13.4
17,Cc1ccc(C)c(S(=O)(=O)c2c(C)cc(C)nc2Cl)c1,8.25
18,Cc1ccc(C2CC(c3ccc(Cl)cc3)n3nc(N)nc3N2)cc1 (stereo not shown),3.47
19,Cl.N=c1n(CCN2CCCC2)c2ccccc2n1CC(O)c1ccco1 (stereo not shown),-3.97
20,O=C(Nc1cccnc1)c1cc(-c2ccco2)on1,13.9
21,O=C1NC2(CCCCCCC2)C(=O)N1Cc1ccc(F)cc1,13.2
22,Cc1cc(C)nc(NC(=O)CSc2nccc(C)n2)n1,6.75

row,SMILES,"hERG current change (%, negative = inhibition) at 1uM [%]"
1,O=C1C(C=Nc2ccccc2)=C(O)c2ccccc21,-1.47
2,COC(=O)c1ccc2c(=O)n(NC(C)=O)c(=S)[nH]c2c1,9.7
3,C/C(=N\NC(=O)c1nn(C)cc1Br)c1cccc(NC(=O)C2CCCC2)c1,3.53
4,O=C(C1CCCN(Cc2ccc(F)cc2)C1)N1CCCCC1.O=C(O)C(=O)O (stereo not shown),9.49
5,C=CCc1ccc(OCCCOc2ccc(C)c(C)c2)c(OC)c1,-4.54
6,Cc1nnsc1C(=O)NNS(=O)(=O)c1ccccc1,10.2
7,O=C(NCCc1c[nH]c2ccccc12)C(=O)Nc1ccccc1,6.9
8,O=C(CS(=O)(=O)Cc1ccccc1)Nc1ccc(S(=O)(=O)N2CCOCC2)cc1,13.2
9,Oc1[nH]c2c(Cl)cc(Cl)cc2c1N=NC(=S)NCC1CCCO1 (stereo not shown),10.8
10,COc1cc(NC(=S)N2CCN(c3ccccn3)CC2)c(OC)cc1Cl,7.07
11,CCN(CC)CCN(C(=O)Cn1nnc(-c2ccc(OC)c(OC)c2)n1)C(C(=O)NC1CCCC1)c1ccc(F)cc1 (stereo not shown),-11.7
12,Cc1ccc(-c2noc(CCC(=O)NCc3ccccc3CN3CCOCC3)n2)cc1,6.61
13,CC1COC(c2cccn2Cc2ccccc2Cl)=N1 (stereo not shown),5.84
14,COc1ccc(NC(C)=O)cc1NC(C)C(=O)Nc1cccc2ccccc12 (stereo not shown),8.54
15,CSc1nc(Oc2ccc(=O)n(C)n2)nc(N(C)C)n1,11.7
16,O=C(NNC(=O)C1CCC(C(=O)NNC(=O)c2cccs2)CC1)c1cccs1 (stereo not shown),7.27
17,COc1ccccc1-c1cc(C(=O)N/N=C\c2cnn(C)c2C)c2ccccc2n1,6.35
18,CSCCC(NC(=O)COc1ccccc1)C(=O)N(C)Cc1ccc(Cl)cc1Cl (stereo not shown),-3.56
19,COc1ccc(CCNC(=O)Cn2cnc3c(cnn3-c3ccccc3Cl)c2=O)cc1OC,4.16
20,Brc1ccc(OCc2nnnn2-c2ccccc2)cc1,18.9
21,COc1cc(C)ccc1OCc1cc(C(=O)NCCN2CCOCC2)no1,12
22,Cc1c(C(=O)N2CCCc3ccccc32)sc2nc(-c3ccccc3)cn12,6.54
